# Reference: the supplement of paper PMC10037445
# Where “and” joins values, the source holds several entries; their conditions need not be identical. Identical values can stand only once. ± gives the standard deviation of the averaged measurements. The full ranking holds about 2,900 compounds; the median of “IRF Lucia reporter activity, fold change vs agonist alone” is about 0.9, and the highest 2% start at about 2.8. This is one part of the list.
# Columns and labels:
# [1] = tested on: RAW-Dual; assay: IRF Lucia reporter activity, fold change vs agonist alone; cytotoxicity flag (confluency mask): not cytotoxic; higher = enhanced IRF activity
# How it was run: (§1)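 RAW-Dual macrophages (50,000 cells/well in DMEM, 384-well plates) received 50 nL of library stock by pin tool, then a PRR agonist 1 h later, and were kept at 37 °C, 5% CO2. After 20 hours, supernatant was read for IRF by QuantiLuc luminescence and for NF-κB by QuantiBlue absorbance at 620 nm. Reporter activity is fold change over agonist-alone wells. Cytotoxic wells had IncuCyte confluency below 70% of agonist controls in both mask sets.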
# [2] = tested on: RAW-Dual; assay: IRF Lucia reporter activity, fold change vs agonist alone; higher = enhanced IRF activity; settings: library stock concentration (final ~1000-fold dilution): 10 mM, agonist: MPLA (TLR4) […]
# How it was run: as §1
# [3] = tested on: RAW-Dual; assay: IRF Lucia reporter activity, fold change vs agonist alone; cytotoxicity flag (confluency mask): cytotoxic (confluency <70% of control); higher = enhanced IRF activity
# How it was run: as §1
# [4] = agonist: 3'3'-cGAMP (STING) 10 ug/mL
# [5] = cytotoxicity flag (confluency mask): not cytotoxic
compound,measurement,setting,value
Nc1ncnc2c1ncn2C(C=O)OC(C=O)CO (stereo not drawn) (library stock concentration (final ~1000-fold dilution): 10 mM),IRF Lucia reporter activity,[1]; [4],0.427
same,IRF Lucia reporter activity,[1]; agonist: LPS (TLR4) 0.1 ug/mL,0.724
Cc1noc(C)c1-c1ccc(-c2cc(C(N)=O)c(NC(N)=O)s2)c(OC2CCNC2)c1 (stereo not drawn) (library stock concentration (final ~1000-fold dilution): 10 mM),IRF Lucia reporter activity,[1]; [4],0.599 ± 0.59
same,IRF Lucia reporter activity,[1]; agonist: LPS (TLR4) 0.1 ug/mL,0.288 ± 0.24
CC1(C)CCC2=C(O1)c1ccccc1C(=O)C2=O,IRF Lucia reporter activity,[2]; cytotoxicity flag (confluency mask): cytotoxic (confluency <70% of control),0.0139
CC1(C)CCC2=C(O1)c1ccccc1C(=O)C2=O (library stock concentration (final ~1000-fold dilution): 10 mM),IRF Lucia reporter activity,[3]; [4],0.00675
same,IRF Lucia reporter activity,[3]; agonist: LPS (TLR4) 0.1 ug/mL,0.0163
O=C(NCC(O)CN1CCc2ccccc2C1)c1ccnc(NC2CCC2)c1 (stereo not drawn) (library stock concentration (final ~1000-fold dilution): 10 mM),IRF Lucia reporter activity,[1]; [4],0.856
same,IRF Lucia reporter activity,[1]; agonist: LPS (TLR4) 0.1 ug/mL,1.08
Nc1nonc1/C(=N\O)Nc1ccc(F)c(Cl)c1 (library stock concentration (final ~1000-fold dilution): 10 mM),IRF Lucia reporter activity,[1]; [4],0.359
same,IRF Lucia reporter activity,[1]; agonist: LPS (TLR4) 0.1 ug/mL,1.06
CCN1CCN(Cc2ccc(-c3cc4c(NC(C)c5ccccc5)ncnc4[nH]3)cc2)CC1 (stereo not drawn) (library stock concentration (final ~1000-fold dilution): 10 mM),IRF Lucia reporter activity,[1]; [4],0.302
same,IRF Lucia reporter activity,[1]; agonist: LPS (TLR4) 0.1 ug/mL,0.362
CCN1CCN(Cc2ccc(-c3cc4c(NC(C)c5ccccc5)ncnc4[nH]3)cc2)CC1 (stereo not drawn),IRF Lucia reporter activity,[2]; [5],0.506
CN(CCNCc1cn(Cc2ccc(Cl)cc2)nn1)CCNc1ccnc2cc(Cl)ccc12.O=C(O)C(F)(F)F (library stock concentration (final ~1000-fold dilution): 10 mM),IRF Lucia reporter activity,[3]; [4],1.05
same,IRF Lucia reporter activity,[3]; agonist: LPS (TLR4) 0.1 ug/mL,1.37
COc1cc2c(OC3OC(CO)C4OC(C)(C)OC4C3O)c3c(c(-c4ccc5c(c4)OCO5)c2cc1OC)C(=O)OC3 (stereo not drawn) (library stock concentration (final ~1000-fold dilution): 10 mM),IRF Lucia reporter activity,[1]; [4],0.0793
same,IRF Lucia reporter activity,[1]; agonist: LPS (TLR4) 0.1 ug/mL,1.2
CC(=O)Oc1cc2c(s1)CCN(C(C(=O)C1CC1)c1ccccc1F)C2 (stereo not drawn),IRF Lucia reporter activity,[2]; [5],0.38
CC(=O)Oc1cc2c(s1)CCN(C(C(=O)C1CC1)c1ccccc1F)C2 (stereo not drawn) (library stock concentration (final ~1000-fold dilution): 10 mM),IRF Lucia reporter activity,[1]; [4],0.287
same,IRF Lucia reporter activity,[1]; agonist: LPS (TLR4) 0.1 ug/mL,0.693
CC(C)C(=O)Nc1ccc([N+](=O)[O-])c(C(F)(F)F)c1 (library stock concentration (final ~1000-fold dilution): 10 mM),IRF Lucia reporter activity,[1]; [4],0.768
same,IRF Lucia reporter activity,[1]; agonist: LPS (TLR4) 0.1 ug/mL,0.998
CC(C)C(=O)Nc1ccc([N+](=O)[O-])c(C(F)(F)F)c1,IRF Lucia reporter activity,[2]; [5],0.911
COc1ccc2nc([S+]([O-])Cc3ncc(C)c(OC)c3C)[nH]c2c1 (stereo not drawn) (library stock concentration (final ~1000-fold dilution): 10 mM),IRF Lucia reporter activity,[1]; [4],0.948 and 0.888
same,IRF Lucia reporter activity,[1]; agonist: LPS (TLR4) 0.1 ug/mL,0.903 and 0.88
CCCCCCCCCCCCCCCC(=O)OC1C(SC)OC(C(NC(=O)C2CC(CCC)CN2C)C(C)Cl)C(O)C1O.Cl (stereo not drawn),IRF Lucia reporter activity,[2]; [5],1.33
CCCCCCCCCCCCCCCC(=O)OC1C(SC)OC(C(NC(=O)C2CC(CCC)CN2C)C(C)Cl)C(O)C1O.Cl (stereo not drawn) (library stock concentration (final ~1000-fold dilution): 10 mM),IRF Lucia reporter activity,[1]; [4],1.11
same,IRF Lucia reporter activity,[1]; agonist: LPS (TLR4) 0.1 ug/mL,1.12
Cn1c(=O)c2[nH]cnc2n(C)c1=O.Cn1c(=O)c2[nH]cnc2n(C)c1=O.NCCN (library stock concentration (final ~1000-fold dilution): 10 mM),IRF Lucia reporter activity,[1]; [4],0.887
same,IRF Lucia reporter activity,[1]; agonist: LPS (TLR4) 0.1 ug/mL,0.778
Cn1c(=O)c2[nH]cnc2n(C)c1=O.Cn1c(=O)c2[nH]cnc2n(C)c1=O.NCCN,IRF Lucia reporter activity,[2]; [5],0.67
CC(=O)Oc1ccccc1C(=O)O.CC(=O)Oc1ccccc1C(=O)O.NC(N)=O (library stock concentration (final ~1000-fold dilution): 10 mM),IRF Lucia reporter activity,[1]; [4],1.05
same,IRF Lucia reporter activity,[1]; agonist: LPS (TLR4) 0.1 ug/mL,1.2
CC(=O)Oc1ccccc1C(=O)O.CC(=O)Oc1ccccc1C(=O)O.NC(N)=O,IRF Lucia reporter activity,[2]; [5],1.01
COc1cc2nccc(Oc3ccc(NC(=O)C4(C(=O)Nc5ccc(F)cc5)CC4)cc3)c2cc1OC.O=C(O)CC(O)C(=O)O (library stock concentration (final ~1000-fold dilution): 10 mM),IRF Lucia reporter activity,[1]; [4],0.054
same,IRF Lucia reporter activity,[1]; agonist: LPS (TLR4) 0.1 ug/mL,0.507
COc1cc2nccc(Oc3ccc(NC(=O)C4(C(=O)Nc5ccc(F)cc5)CC4)cc3)c2cc1OC.O=C(O)CC(O)C(=O)O,IRF Lucia reporter activity,[2]; [5],0.572
